# Laboratory results reported in the supplement of paper PMC11417369.
# ± gives the standard deviation of the averaged measurements. The list shows a part of the results.
# Test system: PfAP2-G AP2 domain (GST-tagged)
# Assay: gcPBM binding intensity (ln(normalized median fluorescence intensity)); higher = stronger DNA binding
# Procedure, shortened: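 Each value is the highest Masliner-normalised natural-log median intensity across replicate spots of either orientation of a probe. The probes were primer-extended double-stranded 36-bp intergenic genomic sequences on an Agilent 4 × 180k array, alongside negative controls, exposed for 1 h to GST-tagged P. falciparum DNA-binding domains expressed in E. coli. Bound protein was picked up with Alexa488 anti-GST antibody and scanned at 488 nm.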
row,Sequence,gcPBM binding intensity (ln)
1,AAATATTACCATGTGAAAATTTTACTGCAACATGAA [TGCATGCA_negctrl_site609],10.1 ± 0.11
2,AAAATGAACTCACGAGCACACACACCCATATATATA [CACACA_site8247],10.3 ± 0.25
3,TGTATTATATAAAATTGTACATGCGAATTGTATAAC [XGTACX_site902],10.8 ± 0.58
4,TATAGCTATGTATTCACACATAATATAAACTTTAAT [CACACA_site5889],9.93 ± 0.014
5,ATATTAAACAGACACACACACATATATTTATTTATA [CACACA_site7564],10.01 ± 0.021
6,TATAGCATATCTCACACACACATAATGAATATTATA [CACACA_site5877],9.87 ± 0.085
7,TAATATTCCTTTTTAACACACATATGAACAAATAAA [CACACA_site153],10.1 ± 0.16
8,ATAAAATGAAATATATATGTGTATGCTTAACTTGTT [CACACA_negctrl_site431],9.835 ± 0.007
9,AAAGGATGTAATATAAACATATATATGTATATATAT [TGCATGCA_negctrl_site347],9.565 ± 0.035
10,TAATTTTTTTTAATAACACACATATATATATATATA [CACACA_site813],10.2 ± 0.69
11,ATTGTTTTATATAGAACACACATAAAAATATATATG [CACACA_site1193],10.2 ± 0.23
12,AATAAAATATTATGTGCATGCTGTTTTATTTATTAA [TGCATGCA_site102],9.56 ± 0.32
13,TTGGTGGATAAATTTACACACAATAATTTTCGTTCA [CACACA_site467],10 ± 0.14
14,AATTCACCAAAAAAAGTGCATATTCAATATATATTA,10 ± 0.15
15,ACAAAATGTAAATAAACACACATATTTATATTTATA [CACACA_site6719],9.79 ± 0.042
16,ATATATATATATATATGTACATATGTGTATATAACT [XGTACX_site495],11.1 ± 0.56
17,AAATAAAAAAATACCCAACACCATGCCAAATGTGAA [CACACA_negctrl_site411],9.89 ± 0.13
18,TAAAACAAAACAAAAATAGGATTATATTCCTTTTTT [CACACA_negctrl_site1003],9.59 ± 0.3
19,ATAATTTCAATATTTAATATCATATATATATATTTT [GTGCAC_negctrl_site713],9.56 ± 0.13
20,TAAAATTCGAAAAATTGTACTATTTATATATCTGTA [XGTACX_site6478],10.9 ± 0.65
21,CTAATTAATATTTGTACACACATATTTAACCTACTA [CACACA_site3191],11.4 ± 0.95
22,TATATAAGTATAAAATGTACATAAAATTTTATGTTA [XGTACX_site2613],11.1 ± 0.76

row,Sequence,gcPBM binding intensity (ln)
1,TAGTTAGGCCCTACATGTACATAATATATATTACTT [XGTACX_site1137],11.1 ± 0.47
2,ATCAACATTACATTTAGTACACATATATTTCTATGT [XGTACX_site4436],11.2 ± 0.76
3,TATGTTGATGATGATAGTACATATGAGTTCAAAAAA [XGTACX_site7712],10.9 ± 0.63
4,AAGACACAAAAACACACACACATACATACATACATA [CACACA_site454],10.1 ± 0.18
5,TAAAAAAACGCACTCGTACACACATATTTTCTTTCT [CACACA_site3090],11.3 ± 0.8
6,TTTTATGATTGACACACACACAAAAAAAAAAAAAAA [CACACA_site7860],10.2 ± 0.59
7,TGTTTTGTTGTGTATTGTACTAATATAAATATATAA [XGTACX_site1852],11.3 ± 0.89
8,AAAAAAAGAAATAATAAAAAATATATATATATATAT [GTGCAC_negctrl_site702],10.1 ± 0.91
9,CGTACATAATTTTAATCACACACAAACAAACACATA [CACACA_site7947],10.6 ± 0.45
10,TATATTTGGAAAACATGTACATATAACAATATGTAA [XGTACX_site324],11.3 ± 0.8
11,AATAAAAAAGGAAACAAATTAATATATATATATATA [CACACA_negctrl_site467],9.89 ± 0.53
12,TTTAATACTTTATATGCATGCAGAGAAAAATGCTTG [TGCATGCA_site286],10 ± 0.12
13,AAAAAAAAGTATGATTCTAAATTTATGTATATATAA [GTGCAC_negctrl_site669],9.975 ± 0.021
14,GAAAGGGCAGGAACTATTAATACACTGATCGATAAG [CACACA_negctrl_site1458],10.2 ± 0.25
15,AATTATAGCTGTATCTGTACGCATTTATTTATAGAC [XGTACX_site5959],11.6 ± 1
16,TTAAATAATATTAGCCGTACAATTTAAAGATAATAA [XGTACX_site8503],11 ± 0.64
17,CAATTTTGCCCTTCCTGTACATATATTGAAAAATAT [XGTACX_site6388],11 ± 0.67
18,ATCTAGTACATACATACACACAACAATGTTATGAGA [CACACA_site3989],10.9 ± 0.71
19,ATACATATAGGATGCACACATAATTCAAATACAATA [CACACA_site651],10.2 ± 0.24
20,TTTGAAATATATTTAGTGCATATATATTGATTATAA [GTGCAC_site9604],10 ± 0.38
21,ATGAATATAATGAAGTGTACATAAAAATAATAAATA [XGTACX_site2481],11.5 ± 0.65
22,AAATAGAGAAATACAAGTACATATCAAACCAATCTA [XGTACX_site2756],11.1 ± 0.66
